Source: PubChem BioAssay (NCATS)
The shares of active, inactive and inconclusive entries below differ from those in the screen. A potency beside an inconclusive call is a rough fit, not a confirmed value. The source made the active and inactive calls. The call rests on the fitted dose curve; in most records, active means well fitted cell-killing curve with a large enough effect; inconclusive means small, poorly fitted or top-dose-only effect, or effect the other way; inactive means flat fitted curve, though single readings scatter.
On the % scale 0 is the no-effect control and ±100 the full control effect; potency means the concentration at half of the fitted maximal effect; tags describe the fitted curve by direction and shape.

What follows are compounds tested on Hek293T (assay: Primary qHTS to identify gynecologic anti-cancer compounds using libraries of approved drugs and bioactive compounds (AID 1345084; further: nearly all actives have a fitted effect of over 55% in size)). Conditions: Gynecologic cancer cell panel viability, ATPlite luminescence, 48 h, control line for the selectivity index; series mostly up to 57.5 µM.
In short: (§1)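 Five-point cytotoxicity, 48 h drug exposure at 37 C, 5% CO2, on cells seeded 16 h beforehand. ATP content read by ATPlite luminescence.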
In the case of `C=C(C)[C@@]12O[C@@H]1[C@@]1(C)C(=CC2=O)CC[C@@H](OC(C)=O)[C@@H]1C`, the Potency is reported as inconclusive: 7.94 µM [cytotoxic, full curve]. `C[C@]12CC[C@H](O[C@@H]3O[C@H](CO)[C@@H](O)[C@H](O)[C@H]3O[C@@H]3O[C@H](CO)[C@@H](O)[C@H](O)[C@H]3O)CC1=CC[C@@H]1[C@@H]2CC[C@]2(C)[C@@H](C3=CC(=O)OC3)CC[C@]12O` was tested, and the Potency was inconclusive: 8.91 µM [cytotoxic, single point]. In the case of `COc1cc(C[C@@H](C)N)c(OC)cc1C`, the Potency is reported as “inactive”. `O=C1CN=C(c2cccc(Br)c2)c2oc3ccccc3c2N1` was tested, and the Potency was inconclusive: 31.6 µM [cytotoxic, single point]. In the case of `CC[C@@H]1/C=C/C=C/C[C@H](C)C(O)[C@](C)(O)C(=O)[C@H](C)C(O)[C@H](C)C(=O)[C@H](C)[C@@H](O)[C@H](C)/C=C/C(=O)O[C@H]2[C@@H](C)[C@@H](CC1)O[C@]1(O[C@H](C[C@H](C)O)[C@H](C)CC1=O)[C@@H]2C` (stereo not given in full), the Potency is reported as inconclusive: 6.31 µM [cytotoxic, single point]. In the case of `C[C@]12CC[C@H](OC3OC(CO)C(O)C(O)C3OC3OC(CO)C(O)C(O)C3O)C[C@@H]1CC[C@@H]1C2CC[C@]2(C)[C@@H](C3=CC(=O)OC3)CC[C@]12O` (stereo not given in full), the Potency is reported as inconclusive: 12.6 µM [cytotoxic, single point]. In the case of `CCCC1CCCCN1` (stereo not given), the Potency is reported as inconclusive: 25.1 µM [rising, partial curve, poor fit].

These compounds were tested on JEG-3 in the same assay as above. Conditions: Gynecologic cancer cell panel viability, ATPlite luminescence, 48 h; series mostly up to 57.5 µM.
In short: as §1
`O=C1CN=C(c2cccc(Br)c2)c2oc3ccccc3c2N1` was tested, and the Potency was inconclusive: 39.8 µM [cytotoxic, single point]. With `CC[C@@H]1/C=C/C=C/C[C@H](C)C(O)[C@](C)(O)C(=O)[C@H](C)C(O)[C@H](C)C(=O)[C@H](C)[C@@H](O)[C@H](C)/C=C/C(=O)O[C@H]2[C@@H](C)[C@@H](CC1)O[C@]1(O[C@H](C[C@H](C)O)[C@H](C)CC1=O)[C@@H]2C` (stereo not given in full) the activity change, negative = cytotoxicity was inactive: 22.8% [at 11.6 µM]. For `CCOC(=O)c1ccc(-c2ccc(OC(=O)N(C)Cc3cccc(-c4ccncc4)c3)cc2)cc1`, the Potency was “inactive”.

These compounds were tested on OV90 in the same assay as above. Conditions: Gynecologic cancer cell panel viability, ATPlite luminescence, 48 h; series mostly up to 57.5 µM.
In short: as §1
`CN1CN(c2ccccc2)C2(CCN(CCCC(=O)c3ccc(F)cc3)CC2)C1=O` was tested, and the Potency was inconclusive: 25.1 µM [cytotoxic, single point]. With `COc1cc(CC(C)N)cc(OC)c1OC` (stereo not given) the Potency was inconclusive: 31.6 µM [cytotoxic, partial curve, poor fit]. `C=C(C)[C@@]12O[C@@H]1[C@@]1(C)C(=CC2=O)CC[C@@H](OC(C)=O)[C@@H]1C` was tested, and the Potency was inconclusive: 39.8 µM [cytotoxic, single point]. For `CC1CCCC(O)CCC/C=C/c2cc(O)cc(O)c2C(=O)O1` (stereo not given), the Potency was “inactive”. For `O=C(N[C@H]1CN2CCC1CC2)c1ccc(Cl)cc1`, the Potency was “inactive”. `C[C@]12CC[C@H](O[C@@H]3O[C@H](CO)[C@@H](O)[C@H](O)[C@H]3O[C@@H]3O[C@H](CO)[C@@H](O)[C@H](O)[C@H]3O)CC1=CC[C@@H]1[C@@H]2CC[C@]2(C)[C@@H](C3=CC(=O)OC3)CC[C@]12O` was tested, and the Potency was “inactive”. For `COc1cc(C[C@@H](C)N)c(OC)cc1C`, the Potency was inconclusive: 100 µM [cytotoxic, single point]. With `CC[C@H]1CN2CC[C@H]1C[C@H]2[C@H](O)c1ccnc2ccc(OC)cc12` the Potency was inconclusive: 11.2 µM [cytotoxic, partial curve, poor fit]. In the case of `CC[C@@H]1/C=C/C=C/C[C@H](C)C(O)[C@](C)(O)C(=O)[C@H](C)C(O)[C@H](C)C(=O)[C@H](C)[C@@H](O)[C@H](C)/C=C/C(=O)O[C@H]2[C@@H](C)[C@@H](CC1)O[C@]1(O[C@H](C[C@H](C)O)[C@H](C)CC1=O)[C@@H]2C` (stereo not given in full), the Potency is reported as inconclusive: 0.282 µM [cytotoxic, single point]. In the case of `CCCC1CCCCN1` (stereo not given), the Potency is reported as “inactive”.
